Assay results published in PubChem BioAssay AID686978 (National Center for Advancing Translational Sciences (NCATS), 2013).
Screen size: about 420,000 compounds; about 64,000 (15%) were called active. This list was built around the results that the source calls inconclusive (neither active nor inactive); the mix of calls is not that of the screen. The call rests on the fitted dose curve; in most records, active means well fitted inhibition curve with a large enough effect; inconclusive means small, poorly fitted or top-dose-only effect; inactive means flat fitted curve, though single readings scatter. Potencies of inconclusive entries are left out as doubtful fits.

Assay: qHTS for Inhibitors of human tyrosyl-DNA phosphodiesterase 1 (TDP1): qHTS in cells in absence of CPT; further: nearly all actives have a fitted effect of over 55% in size
Conditions: DT40 Tdp1-/- hTDP1 cells, no CPT, ATP luminescence, 48 h; activity change, negative = growth inhibition: at 46.2 µM (top of the series) unless noted
Procedure, shortened: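 Growth of hTDP1-complemented DT40 Tdp1-knockout cells is measured by ATP luminescence after at least 48 hr compound exposure at 37 °C, with DMSO substituting for the 20 nM CPT used in the parallel screen.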
On the % scale 0 is the no-effect control and ±100 the full control effect; potency means the concentration at half of the fitted maximal effect; tags describe the fitted curve by direction and shape.

SMILES	Potency	activity change, negative = growth inhibition
COc1ccccc1NC(=O)c1cccc(S(=O)(=O)N2CCN(Cc3ccccc3)CC2)c1	inconclusive [inhibitor, single point]	–
COc1ccc(NC(=O)C2CCCN(c3ncnc4onc(-c5ccc(F)cc5)c34)C2)cc1 (stereo not drawn)	inconclusive [inhibitor, single point]	–
COc1cc(OC)c(-c2nnc(-c3ccc(OC)c(OC)c3OC)o2)cc1OC	active: 12.6 µM	–
C=CCOC(=O)C1=C(C)Nc2nnnn2C1c1cc(OC)ccc1OC (stereo not drawn)	inconclusive [inhibitor, partial curve, poor fit]	–
COc1ccccc1-c1noc(CCC(=O)Nc2cccnc2)n1	inconclusive [inhibitor, single point]	–
N#C/C(=C(/O)CN1CCOCC1)c1nc(-c2ccccc2)cs1	–	inactive: -9.13%
CCOc1cc(NC(=S)NCC2CCCO2)c(OCC)cc1NC(=O)c1ccc(F)cc1 (stereo not drawn)	inconclusive [inhibitor, single point]	–
O=C(/C=C/c1ccc(Br)cc1)c1ccco1	active: 16.4 µM	–
Cc1ccc[n+](CC(=O)Nc2cccc([N+](=O)[O-])c2)c1	–	inconclusive: -32.8% [inhibitor]
Clc1cccc(/C=N/Nc2nc(Cl)nc3ccccc23)c1	inconclusive [inhibitor, single point]	–
COC(=O)[C@H](Cc1ccccc1)NC(=O)N1CCCCCC1	–	inactive: 10.8%
Cc1nc(N2CCN(c3ccccn3)CC2)c2c(C)c(C(=O)Nc3ccc(F)cc3Cl)sc2n1	active: 20.6 µM	–
CC(=O)Nc1ccc(C(=O)N2CCCCC2c2cc(C(=O)NC(C)C)no2)cc1 (stereo not drawn)	–	inactive: 4.68%
CCOc1cccc(CC(=O)N2CCc3c([nH]c4ccccc34)C2c2ccc(F)cc2)c1OCC (stereo not drawn)	active: 25.9 µM	–
O=C(c1cc(-c2ccccc2)n[nH]1)N1CCc2c([nH]c3ccccc23)C1c1ccccn1 (stereo not drawn)	active: 20.6 µM	–
COc1cc(OC)c(C(=O)OCC(=O)Nc2cccc(S(=O)(=O)NC3=NCCCCC3)c2)cc1OC	inconclusive [inhibitor, partial curve]	–
CCOc1ccc(N(CC)S(=O)(=O)N2CCCC(C(=O)NCc3ccccc3Cl)C2)cc1 (stereo not drawn)	active: 20.6 µM	–
CCOC(=O)c1oc2cc(O)c(CC)cc2c(=O)c1-c1ccc2c(c1)OCCO2	–	inactive: -22.7%
CCc1cccc(NC(=O)COC(=O)c2c(-c3ccccc3)noc2C)c1	inconclusive [inhibitor, single point]	–
O=C(O)CCN1C(=O)c2ccc(Oc3ccc([N+](=O)[O-])cc3)cc2C1=O	–	inactive: -4.89%
CCc1ccccc1NC(=O)c1ccc2nc(CCc3ccccc3)oc2c1	inconclusive [inhibitor, single point]	–
COC(=O)c1nnn(-c2ccccc2)c1N	–	inactive: -2.42%
Cc1ccc(C(=O)COC(=O)C(CC(C)C)NC(=O)C2CCC(C)CC2)cc1 (stereo not drawn)	inconclusive [inhibitor, single point]	–
CCN(CC(=O)Nc1ccc(Cl)c(C(F)(F)F)c1)CC(=O)NC1CCS(=O)(=O)C1 (stereo not drawn)	inconclusive [inhibitor, partial curve]	–
CCCNC(=O)C(Cc1ccc(I)cc1)NC(=O)C1CC1 (stereo not drawn)	–	inactive: -19.1%

SMILES	Potency	activity change, negative = growth inhibition
CCCNC(=O)C1(C)CCN(C(=O)Cc2ccc3ccccc3c2)C1 (stereo not drawn)	inconclusive [inhibitor, partial curve]	–
CCC(=O)N1CCc2cc(Br)cc(S(=O)(=O)N3CCCC(C(=O)Nc4cccc(Cl)c4C)C3)c21 (stereo not drawn)	active: 11.6 µM	–
CC(=O)c1cccc(NC(=O)C2CCCN(c3nnc(-n4cccc4)s3)C2)c1 (stereo not drawn)	active: 16.4 µM	–
COc1cc(C2N=C(N)Nc3nc4ccccc4n32)ccc1OCCC(C)C (stereo not drawn)	active: 18.4 µM	–
CCN(CC)CCNC(=O)c1ccc(NC(=O)Nc2cccc3ccccc23)cc1	–	inactive: 8.52%
COc1ccc(-c2csc(NC(=O)CS(=O)(=O)c3ccccc3)n2)c(OC)c1	inconclusive [inhibitor, single point]	–
O=C(CCCN1Cc2ccccc2C1)c1ccc(F)cc1	inconclusive [inhibitor, single point]	–
CCN(CC)C(=O)c1nc(-c2cccc3ccccc23)no1	active: 16.4 µM	–
CCOc1ccc(NS(=O)(=O)c2cc(Br)cc3c2N(C(=O)C2CC2)CC3)cc1	inconclusive [inhibitor, partial curve, poor fit]	–
O=C(NCCc1ccccc1Cl)c1cc(COc2ccc(F)cc2F)on1	inconclusive [inhibitor, single point]	–
CCn1c(CC(=O)Nc2ccc(C)cc2)n[nH]c1=S	–	inactive: -19.1%
CNC(=O)OCc1nc(SSC(C)(C)C)n(C)c1COC(=O)NC	active: 2.06 µM	–
CC(C)(C)c1ccc2c(c1)OC(C(=O)N/N=C\c1ccncc1)CO2 (stereo not drawn)	inconclusive [inhibitor, partial curve]	–
Cc1cnn(-c2ccc3nnc(-c4ccc(Cl)cc4)n3n2)c1	inconclusive [inhibitor, full curve]	–
O=[N+]([O-])c1ccc(Cl)c(S(=O)(=O)N2CCCCCC2)c1	inconclusive [inhibitor, single point]	–
CC(=O)N(C)c1ccc(NS(=O)(=O)c2cc(Cl)ccc2Cl)cc1	–	inactive: 1.53%
CCN(CC)c1ccc(NS(=O)(=O)c2ccc(-c3ccc(=O)[nH]n3)o2)c(C)c1	inconclusive [inhibitor, single point]	–
CCc1cccc(N(C(=O)c2csnn2)C(C(=O)NC(C)(C)C)c2ccccn2)c1 (stereo not drawn)	–	inactive: 4.83%
O=Cc1ccc(Oc2ncccn2)cc1	–	inactive: 8.35%
COc1ccccc1N1CCN(C(c2ccc(N(C)C)cc2)c2nnnn2CCc2ccccc2)CC1 (stereo not drawn)	inconclusive [inhibitor, single point]	–
Cc1ccccc1-c1nc(CS(=O)(=O)CC(=O)N2CCN(c3ccccc3)CC2)c(C)o1	inconclusive [inhibitor, partial curve]	–
CN(C)c1ccc(C=c2c3cc([N+](=O)[O-])ccc3n3c2cc(-c2ccccc2)[n+]3C)cc1	active: 2.59 µM	–
CC(C)CCn1c(SCC(=O)c2ccccc2)nc2c1c(=O)[nH]c(=O)n2C	–	inactive: -35.8%
Cc1ccc(-c2noc(CNC(=O)c3ccc4c(c3)OCO4)n2)cc1	inconclusive [inhibitor, partial curve, poor fit]	–
CC(=O)c1cccc(Nc2c([N+](=O)[O-])c(=O)oc3ccccc23)c1	inconclusive [inhibitor, partial curve]	–

SMILES	Potency	activity change, negative = growth inhibition
NS(=O)(=O)c1cc2c(cc1Cl)N[C@@H]([C@@H]1C[C@@H]3C=C[C@H]1C3)NS2(=O)=O	–	inactive: -3.34%
O=C(CSc1nnc(COc2ccccc2)o1)NCCc1ccccc1	active: 7.31 µM	–
CCOC(=O)c1cnc2c(N=Nc3ccccc3)c(N)nn2c1N	–	inactive: -27.8%
O=C(Nc1ccc(CN2CCOCC2)cc1)c1cc2ccccc2o1	inconclusive [inhibitor, partial curve]	–
O=C(Nc1ncccc1O)c1ccc2c(c1)OCCO2	active: 14.6 µM	–
CC(=O)c1sc(C(C)(C)C)cc1NC(=O)/C=C/C(=O)O	inconclusive [inhibitor, single point]	–
CCOC(=O)c1cc(C)n(CC2CCC(C(=O)Nc3ccc(Cl)cc3)CC2)c1C (stereo not drawn)	active: 11.6 µM	–
O=C(c1ccco1)N1CCN(Cc2ccccc2Br)CC1	inconclusive [inhibitor, partial curve, poor fit]	–
CN(Cc1ccccc1)C(=O)c1ccc(NC(=O)C2CCCN(C(=O)OC(C)(C)C)C2)cc1 (stereo not drawn)	active: 18.4 µM	–
O=C(Nc1ccc(-n2cnnn2)cc1)C1CCCN1C(=O)Nc1ccc(Br)cc1 (stereo not drawn)	inconclusive [inhibitor, full curve, poor fit]	–
Cn1nc(-c2ccc(Cl)cc2)c2cc(C(=O)NC3CC3)sc21	inconclusive [inhibitor, single point]	–
CCC1CCc2nc3sc(C(=O)Nc4ccc(F)cc4F)c(N)c3cc2C1 (stereo not drawn)	inconclusive [inhibitor, partial curve]	–
CCC1(C)Cc2c(C#N)c(SC)nc(N3CCOCC3)c2CO1 (stereo not drawn)	inconclusive [inhibitor, single point]	–
Cn1c(/C=C/c2ccccc2)nc2ccccc21	active: 16.4 µM	–
COc1cc(OC)c(NC(=O)NC(C)c2c(-n3cccc3)sc(C)c2C)cc1Cl (stereo not drawn)	–	inactive: -20.4%
Nc1ccccc1SC(C[N+](=O)[O-])c1ccccc1 (stereo not drawn)	active: 2.31 µM	–
CCCCNC(=O)CSc1nc2nc(C)c(Cc3ccccc3C)c(C)n2n1	inconclusive [inhibitor, single point]	–
COc1cc(NS(=O)(=O)c2ccc(NC(=O)c3ccccc3C(=O)O)cc2)nc(OC)n1	–	inactive: 4.85%
CC(/C=N/NC(=O)c1ccccc1F)c1ccccc1 (stereo not drawn)	–	inactive: 22%
O=C(O)C1=C[C@H](c2ccc(Br)cc2)C[C@H](OCc2ccc(CO)cc2)O1	–	inactive: -1.02%
CCC(C)C(=O)N1CCCC(c2nc(-c3cccs3)no2)C1 (stereo not drawn)	inconclusive [inhibitor, single point]	–
CC(=O)Nc1cccc(C(=O)NCc2ccc3c(c2)CCN3C(=O)c2ccccc2)c1	inconclusive [inhibitor, single point]	–
CCOC(=O)/C(=N\Nc1ccc(OC)cc1)c1csc(Nc2ccccc2)n1	inconclusive [inhibitor, single point]	–
